For 56 variants, self-cleavage results are on record in the RNAGym collection of RNA variant scans (doi:10.7554/elife.90254).

The labels stand for the following.
B1: LINE1-mini (parent)
chain: GGCAGAGCUCAACACAGCGUGGCAAAGUGGCUGUGGCUAGACUGCC

The source gives no read counts; variants with many changes may rest on few reads.

Variants of B1 are the subject of the data set. In words: self-cleavage, relative activity (ratio to wild type); higher = more cleavage; in vitro, sequencing; the parent is a self-cleaving ribozyme.
In the case of GGCAGAGCUCAACACAGCCUGGCAAAGUGGCUGUCGCUAGACCGCC [G19C G35C U43C], the self-cleavage was 0.02. With GGCAGAGCUCAACACAGCCUGGCAAAGUGGCUGUGGCCAUACUGCC [G19C U38C G40U], the self-cleavage was found to be 0.04.

For GGCAGAGCUCAACACAGCUUGGCAAUGUGGUUGAGGAUAGACUGCC [G19U A26U C31U U34A C37A], the self-cleavage came to 0.03.

With GGCAGAGCUCAACACAGCCUUGAAAAGUGGCUGUGGCUAGGCGGCC [G19C G21U C23A A41G U43G], the self-cleavage turned out to be 0. As for GGCAGAGCUCAACACAGCCUGGCAAAGCGGCUGUGGCUAGACUCCC [G19C U28C G44C], the self-cleavage was 0.14. For the variant GGCAGAGCUCAACACAGCUUAGGAAAGUGGCUGAGGCUAGACUGCC [G19U G21A C23G U34A], the self-cleavage amounted to 0.11. GGCAGAGCUCAACACAGCCUGGCAAAGUUGCUGUGGCUAGACUGUC [G19C G29U C45U]: the self-cleavage was 0.68. The result for GGCAGAGCUCAACACAGCUUGGCAAAGUGGCUGUGGCUAGAUUGAC [G19U C42U C45A] reads 0.03; that for GGCAGAGCUCAACACAGCUUGGUAAAGUCGCUGUCGCUAGACUUCC [G19U C23U G29C G35C G44U], 0.12; that for GGCAGAGCUCAACACAGCCUGGGAAAGCGGCUGUGACUAGACUGCC [G19C C23G U28C G36A], 0.02.

For the variant GGCAGAGCUCAACACAGCCUGGCAAAGUGGCCGUUGCUAGACUGCC [G19C U32C G35U], the self-cleavage is 0.04.

For the variant GGCAGAGCUCAACACAGCUUGGCAAAGUGGCUGUGGCUGUACUGCC [G19U A39G G40U], the self-cleavage is 0.03.

GGCAGAGCUCAACACAGCCUGACAAAGUGGCUGUGGCUAGACUGAC [G19C G22A C45A]: the self-cleavage came to 0.31. For GGCAGAGCUCAACACAGCUUGGCACAGUGGCUGGGGCUAGAUUGCC [G19U A25C U34G C42U], the self-cleavage amounted to 0.36. On to GGCAGAGCUCAACACAGCUUGGGAAAGUGGCUGUGGCUAGACUUCA [G19U C23G G44U C46A], for which the self-cleavage worked out at 0. GGCAGAGCUCAACACAGCCUAGCUAAGUGGCUGUGGCUAAACUGAC [G19C G21A A24U G40A C45A]: the self-cleavage was 0.05. In the case of GGCAGAGCUCAACACAGCCGGGCACAGUGGCUGUCGCUAGACUGCC [G19C U20G A25C G35C], the self-cleavage is 0.03. GGCAGAGCUCAACACAGCUUAGCAAGCUAGCUGUGGCUAGACUGCC [G19U G21A A26G G27C G29A]: the self-cleavage was determined as 0.51.

As to GGCAGAGCUCAACACAGCCUGUUAAAGUGGAUGUGGCUAGACUGCC [G19C G22U C23U C31A], the self-cleavage came out at 0.28. For GGCAGAGCUCAACACAGCUUGGCAAAGUGGGUGUGGCUAGACUGCA [G19U C31G C46A], the self-cleavage was 0.04.

Regarding GGCAGAGCUCAACACAGCCAGGCAAAGUGGCUGUUGCUCGACUGCC [G19C U20A G35U A39C], the self-cleavage worked out at 0.03. Turning to GGCAGAGCUCAACACAGCCUGGCAAAGUGACUGUGGCGAGACUGCC [G19C G30A U38G], the self-cleavage was determined as 0.03. Take GGCAGAGCUCAACACAGCCUGGCAAAGUGGCUAUGGCAAGACUGCC [G19C G33A U38A]: the self-cleavage came out at 0.22. In the case of GGCAGAGCUCAACACAGCCUGGCAAAGUGGCUGUGGCUAUACUGGC [G19C G40U C45G], the self-cleavage came out at 0.08. On to GGCAGAGCUCAACACAGCUUAGCUAAGUGGCUGUGGCUAGAAUGCU [G19U G21A A24U C42A C46U], for which the self-cleavage came to 0.11.

For GGCAGAGCUCAACACAGCCUGGCAAAGUUGCUGAGGCUAGACUACG [G19C G29U U34A G44A C46G], the self-cleavage is 0.16. On to GGCAGAGCUCAACACAGCUUGGGAACGUGGCUGUAGCUAGACUGCC [G19U C23G A26C G35A], for which the self-cleavage is 0.11. Regarding GGCAGAGCUCAACACAGCCUGGCAAAGUGGCUGUAGCUAGAUUGCC [G19C G35A C42U], the self-cleavage is 0.

Take GGCAGAGCUCAACACAGCUUGGAAAAGUGGCCGUGGCUAGACUGCG [G19U C23A U32C C46G]: the self-cleavage was 0.19.

In the case of GGCAGAGCUCAACACAGCCUGUCAAAGUAGCUGUGGCUAGACUGCC [G19C G22U G29A], the self-cleavage is 0.7.

GGCAGAGCUCAACACAGCCUUGCAAAGUGGCUGGGGCUAGACUGCC [G19C G21U U34G]: the self-cleavage stood at 0.93. Regarding GGCAGAGCUCAACACAGCUUGGUAAAGUGGCUGUGGCUAGAUUGCC [G19U C23U C42U], the self-cleavage was determined as 0.04.

For the variant GGCAGAGCUCAACACAGCCUGGCAAAGUGGCUGUGGGUAGAUUGCC [G19C C37G C42U], the self-cleavage worked out at 0.02. In the case of GGCAGAGCUCAACACAGCUUGGCAACGUGGCCGUGGCUAGACUGCC [G19U A26C U32C], the self-cleavage was 0.61. The same measure for GGCAGAGCUCAACACAGCCGGGCAAAGUGGCUGUGGCUAGAAUGCC [G19C U20G C42A]: 0.06; for GGCAGAGCUCAACACAGCCUGGCAAAGUAGCUUGGGCUAGACUGCC [G19C G29A G33U U34G]: 0.06; for GGCAGAGCUCAACACAGCUUGGCAAAGUGGCUGUGGCUUUACUACC [G19U A39U G40U G44A]: 0.02. Regarding GGCAGAGCUCAACACAGCUUGGGAAAGUGGCUGUGGCUAGAGUGCC [G19U C23G C42G], the self-cleavage came to 0.04. As to GGCAGAGCUCAACACAGCCUGGCAAAGUGGCUGUGGCUACACUUCC [G19C G40C G44U], the self-cleavage amounted to 0.06. In the case of GGCAGAGCUCAACACAGCCUGGCAAAGUGUCUGCGGCUAGACAGCC [G19C G30U U34C U43A], the self-cleavage is 0.16.

For GGCAGAGCUCAACACAGCCUGGCAAAUUGGCCAUGGCUAGACUGCC [G19C G27U U32C G33A], the self-cleavage is 0.02. The result for GGCAGAGCUCAACACAGCCUGGCAAAAUGGCUGUGGCUAGGCUCCC [G19C G27A A41G G44C] reads 0.01; that for GGCAGAGCUCAACACAGCCUGGCAAAGUGGCUGUCGCUAGCCUGUC [G19C G35C A41C C45U], 0.01. For the variant GGCAGAGCUCAACACAGCCUUGCAAAGUGGCCGUGGCUAGACUGCC [G19C G21U U32C], the self-cleavage is 0.26. The result for GGCAGAGCUCAACACAGCCUGGCAAAUUGGCUGUGGCUAUACUGCC [G19C G27U G40U] reads 0.11.

Regarding GGCAGAGCUCAACACAGCCUGGCAAAGUGGCUGUGUCUAAACUGCC [G19C G36U G40A], the self-cleavage was 0.09. The same measure for GGCAGAGCUCAACACAGCUUGGCAAAGUGGCUGUGGCUUGUCUGCC [G19U A39U A41U]: 0.38; for GGCAGAGCUCAACACAGCCUGGCAAAGUGGCUGUGGCUAGACUUAC [G19C G44U C45A]: 0.04; for GGCAGAGCUCAACACAGCUUGGCAGUGUGGCUGAGGCUAGACUGCC [G19U A25G A26U U34A]: 0.04.

With GGCAGAGCUCAACACAGCUUGGGUAAGUGACUGUGGCUAGCCAGGC [G19U C23G A24U G30A A41C U43A C45G], the self-cleavage worked out at 0.03. For GGCAGAGCUCAACACAGCUUGGGAAAAUGGCAGUGGCUAGACUGCC [G19U C23G G27A U32A], the self-cleavage worked out at 0.11. In the case of GGCAGAGCUCAACACAGCCUUGCAAAGCGGCUGUCGCUAGAUUGCC [G19C G21U U28C G35C C42U], the self-cleavage amounted to 0.01. With GGCAGAGCUCAACACAGCUUGGCAAAGUGGCUGUGGCUGGACAGCC [G19U A39G U43A], the self-cleavage was determined as 0.11.

On to GGCAGAGCUCAACACAGCCCAGCAUAGUGGCUGUGGACUGACUGCC [G19C U20C G21A A25U C37A U38C A39U], for which the self-cleavage is 0.02. As to GGCAGAGCUCAACACAGCCUGGCAAAGUGGCUGUGGAUGGACUGCC [G19C C37A A39G], the self-cleavage stood at 0.01. Consider GGCAGAGCUCAACACAGCCUGACAAAGUGGCUGUGGCUAAACUGCC [G19C G22A G40A], for which the self-cleavage came out at 0.04.
